The list shows a part of the results. Sequences were assembled here from the parent chain. Inactive controls read about 0.05.
B1: TEV protease; numbered along this chain (parent)
chain: MGESLFKGPRDYNPISSSICHLTNESDGHTTSLYGIGFGPFIITNKHLFRRNNGTLVVQSLHGVFKVKDTTTLQQHLVDGRDMIIIRMPKDFPPFPQKLKFREPQREERICLVTTNFQTKSMSSMVSDTSCTFPSGDGIFWKHWIQTKDGQCGSPLVSTRDGFIVGIHSASNFTNTNNYFTSVPKNFMELLTNQEAQQWVSGWRLNADSVLWGGHKVFMVKPEEPFQPVKEATQL

Variants of: B1
Experiment: raw area under fraction-flipped curve 0-4 h after induction (AUC4h, not background-subtracted), DNA-recorder readout of cleavage of the substrate (dimensionless); higher = more cleavage of the substrate by the protease variant
Conditions: temperature: 34 °C; time window: 0-4 h after rhamnose induction
Experimental: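 In vivo DNA recorder in E. coli TOP10(DE3) ΔrhaA at 34 °C. Each TEVp single-site mutant (parent TEVp 0) is paired with a single-site variant of the 7-mer TEVs (canonical ENLYFQ|S). The substrate sits between flexible linkers in a Bxb1-sfGFP-TEVs-SsrA fusion, so cleavage stabilises Bxb1 and speeds flipping of a recombination array, read by NGS. The value is the raw area under the fraction-flipped curve over 0-4 h after rhamnose induction (AUC4h), with ≥20 reads per time point. It is not background-subtracted; inactive controls average about 0.047.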
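Note: Bxb1 expression induced with 0.2% (w/v) L-rhamnose at OD600 near 0.5, cultures sampled hourly, flipped fraction per protease–substrate barcode pair counted by paired-end Illumina sequencing.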

Variant | area with substrate ENLAFQS | area with substrate ENLCFQS | area with substrate ENLDFQS | area with substrate ENLEFQS | area with substrate ENLFFQS | area with substrate ENLHFQS | area with substrate ENLIFQS | area with substrate ENLKFQS | area with substrate ENLLFQS | area with substrate ENLMFQS | area with substrate ENLNFQS | area with substrate ENLPFQS | area with substrate ENLQFQS | area with substrate ENLRFQS | area with substrate ENLSFQS | area with substrate ENLGFQS | area with substrate ENLVFQS | area with substrate ENLWFQS | area with substrate ENLTFQS
R106E | 0.0616 | 0.0999 | 0.0671 | 0.0688 | 0.0996 | 0.0735 | 0.0805 | 0.0785 | 0.0804 | 0.0723 | 0.0608 | 0.0592 | 0.102 | 0.0773 | 0.0734 | – | – | – | –
I43D | 0.0286 | 0.0467 | 0.0417 | 0.04 | 0.0379 | 0.0383 | – | 0.0432 | 0.0482 | 0.0408 | 0.0422 | 0.0474 | – | 0.0393 | 0.0427 | 0.0394 | 0.0504 | 0.0535 | –
T71V | 0.0684 | – | 0.0613 | 0.0754 | 0.108 | 0.0757 | – | 0.0706 | 0.0686 | – | 0.0467 | 0.0551 | – | 0.084 | 0.0609 | – | – | 0.0687 | 0.0617
W199P | 0.0557 | 0.063 | 0.0664 | – | 0.075 | 0.0737 | 0.0675 | 0.0804 | – | 0.0911 | – | – | 0.0633 | 0.0749 | – | – | – | – | –
T55C | 0.0684 | – | 0.0714 | 0.0638 | 0.0707 | 0.0704 | 0.0892 | 0.0662 | – | 0.0908 | 0.0538 | 0.0583 | 0.0573 | – | 0.0597 | – | 0.0785 | 0.0738 | –
M122V | 0.054 | – | 0.0592 | 0.0735 | 0.0914 | 0.0733 | 0.0835 | 0.0817 | – | 0.0619 | 0.0676 | 0.05 | 0.0598 | – | – | 0.0716 | 0.0808 | – | –
H29M | 0.0701 | – | 0.0611 | 0.0701 | 0.094 | 0.0643 | 0.0845 | 0.066 | 0.0425 | 0.0724 | 0.0657 | 0.0616 | – | 0.101 | 0.065 | 0.058 | – | 0.0609 | –
V183W | 0.0617 | 0.0706 | 0.0576 | 0.058 | 0.0715 | 0.0516 | 0.0643 | 0.0661 | – | – | 0.0686 | 0.0617 | – | 0.0603 | 0.0594 | – | – | 0.054 | 0.0676
G37S | – | 0.0598 | 0.0614 | 0.0496 | 0.0778 | – | 0.107 | 0.0741 | 0.0552 | – | 0.0675 | 0.0627 | 0.0475 | – | 0.0773 | – | 0.0734 | 0.0634 | –
D79K | – | 0.0448 | 0.0648 | 0.0558 | 0.0695 | 0.0529 | – | – | – | 0.0894 | 0.0637 | 0.0603 | 0.0859 | 0.0595 | 0.076 | – | – | 0.0633 | –
L73Q | – | 0.0664 | 0.0566 | 0.0529 | 0.0583 | 0.0635 | 0.0671 | 0.0564 | – | 0.0488 | 0.0551 | – | 0.0535 | – | 0.0446 | 0.0288 | 0.0752 | 0.0463 | –
F38K | – | 0.0932 | 0.0599 | – | 0.0699 | 0.0337 | 0.0628 | – | 0.0303 | – | 0.0473 | 0.0584 | 0.0443 | – | 0.0368 | – | – | 0.0443 | 0.0582
C20W | – | 0.0444 | 0.0355 | 0.0464 | 0.0495 | 0.0409 | – | 0.0438 | 0.0438 | – | 0.0523 | 0.0493 | – | 0.0389 | 0.0534 | 0.0374 | – | 0.0382 | 0.0475
G37A | – | 0.0746 | 0.0684 | 0.0558 | 0.0901 | 0.0629 | 0.0946 | 0.0768 | 0.076 | 0.0731 | 0.0642 | 0.0634 | 0.0551 | 0.0746 | 0.0426 | – | – | 0.0814 | 0.0767
I15P | – | 0.0345 | 0.0617 | – | 0.1 | 0.0793 | 0.0776 | 0.0708 | 0.0631 | – | 0.0518 | – | – | 0.0685 | 0.0584 | 0.0783 | – | 0.0651 | 0.0581
T147M | – | 0.0763 | 0.0733 | 0.0585 | – | – | – | – | – | – | – | – | – | 0.0573 | – | 0.0516 | – | – | –
E3F | – | 0.0677 | 0.0665 | – | 0.094 | – | 0.108 | 0.093 | – | – | 0.0711 | – | – | 0.0774 | 0.076 | – | – | – | –
I139V | – | 0.0604 | 0.0672 | 0.06 | 0.0768 | 0.07 | 0.0881 | 0.0822 | 0.0859 | – | 0.0532 | 0.0636 | 0.055 | 0.0761 | 0.057 | – | 0.0662 | – | 0.0774
K142W | – | 0.0503 | 0.0736 | 0.0614 | 0.114 | – | 0.077 | 0.0291 | – | – | – | 0.0546 | 0.049 | – | 0.065 | – | 0.0377 | 0.0611 | 0.0577
L33H | – | 0.0507 | 0.0609 | 0.0679 | 0.067 | 0.0588 | 0.067 | 0.0678 | 0.059 | – | 0.0586 | 0.0704 | 0.0654 | 0.057 | 0.0649 | 0.0728 | – | 0.0615 | –
K90G | – | 0.073 | – | 0.0657 | 0.0802 | – | – | 0.0844 | – | – | 0.0675 | – | 0.0757 | 0.0798 | – | – | 0.0843 | – | –
N175L | – | 0.0674 | 0.0606 | – | 0.0782 | – | 0.0727 | 0.0615 | 0.06 | 0.0788 | 0.0652 | 0.0621 | – | 0.0679 | – | 0.0712 | 0.0732 | – | –
L73R | – | 0.0487 | 0.06 | 0.0731 | 0.097 | 0.0718 | 0.0603 | 0.0582 | – | – | 0.0478 | 0.065 | 0.0553 | 0.053 | – | 0.058 | 0.0596 | 0.0625 | –
Q75E | – | 0.0598 | 0.0579 | 0.064 | 0.0529 | – | 0.0728 | 0.0606 | – | – | 0.0649 | 0.0572 | 0.0565 | 0.0731 | 0.0632 | – | – | – | –
G162R | – | 0.0626 | 0.0684 | – | 0.0715 | – | – | 0.0625 | – | – | 0.062 | 0.0598 | 0.0877 | 0.0666 | 0.0689 | – | – | 0.0463 | –
G214D | – | 0.0501 | – | – | – | 0.0458 | – | 0.057 | – | 0.0609 | 0.0619 | 0.0503 | – | 0.051 | – | 0.0781 | – | 0.0533 | 0.0747
M188S | – | 0.0716 | – | – | 0.102 | 0.0581 | – | 0.0783 | – | – | 0.064 | 0.0679 | – | 0.0675 | 0.0666 | – | – | – | –
L33R | – | 0.0734 | 0.0645 | 0.0603 | 0.0718 | 0.0585 | 0.0644 | 0.0632 | 0.066 | – | 0.0729 | 0.0515 | 0.0709 | – | 0.0641 | 0.0707 | 0.0639 | – | 0.0535
